Experimental data from the supplement of paper PMC10326071.
Several values for one entry are separate records, joined by “and”; a condition that tells them apart may be missing. Equal entries are not always repeated. The list shows a part of the results. Repeats are few or missing, and single values can be far off.

system: SARS-CoV-2 nsp3 SARS-unique domain core (SUD-core, nsp3 residues 413-676); test: apparent dissociation constant Kd (single-concentration BLI fit); higher = weaker binding; conditions: 100 µM; 25 °C

SMILES	apparent dissociation constant Kd
COc1c(B(O)O)cccc1-c1nc2ccc3[nH]ncc3c2c2c1CCC2	338 µM
C/C(=N\NC(=O)c1ccc(C)c(Br)c1)c1ccc(O)cc1O	0.0217 µM
O=c1[nH]c2ccccc2n1C1CCN(Cc2ccc(-c3[nH]c4cc5ncnc5cc4nc3-c3ccccc3)cc2)CC1	56500 µM
N#Cc1cn([C@@H]2O[C@H](CO)[C@@H](O)[C@H]2O)c2nc[nH]c(=O)c12	426 µM
Nc1nc2c(ncn2COCCO)c(=O)[nH]1	114 µM
COc1ccc(C(OC[C@H]2O[C@@H](n3cnc4c(=O)[nH]cnc43)C[C@@H]2O)(c2ccccc2)c2ccc(OC)cc2)cc1	21.4 µM
CNC(=O)c1ccc(-c2cnc3cnc(C(=O)N(C)c4ccc(Cl)cc4)cn23)cc1	1890 µM
COc1cc(Nc2ncc(F)c(Nc3ccc4c(n3)N(COP(=O)(O)O)C(=O)C(C)(C)O4)n2)cc(OC)c1OC	1840 µM and 1670 µM
CCS(=O)(=O)Nc1ccc2[nH]c(O)c(C(=Nc3ccc(CN4CCCCC4)cc3)c3ccccc3)c2c1	51.7 µM
C[C@H](CC[C@@H](O)C(C)(C)O)[C@H]1CC[C@@]2(C)[C@@H]3CC=C4[C@@H](CC[C@H](O)C4(C)C)[C@]3(C)[C@H](O)C[C@]12C	1800 µM
Cc1cccc(-c2[nH]ncc2-c2ccc(F)c(-c3cnn(CCO)c3)c2)n1	21200 µM
COc1ccc(C(OC[C@H]2O[C@@H](n3ccc(NC(C)=O)nc3=O)C[C@@H]2O)(c2ccccc2)c2ccc(OC)cc2)cc1	3490 µM
Cc1[nH]c(/C=C2\C(=O)Nc3ccc(S(=O)(=O)Cc4c(Cl)cccc4Cl)cc32)c(C)c1C(=O)N1CCC[C@@H]1CN1CCCC1	7240 µM
O=C(Nc1cccc(-c2nncn2C2CC2)c1)c1cc(-n2cnc(C3CC3)c2)ccn1	702 µM
O=c1[nH]c(=O)n(C2CCCO2)cc1F (centres undefined)	242 µM
Cc1ccc(C(=O)Nc2cccc(C(F)(F)F)c2)cc1-c1ccc2nc(NCCN3CCOCC3)ncc2c1	6280 µM
O=C(NCCCNc1nc(Nc2cccc(CN3CCOCC3)c2)ncc1C1CC1)C1CCC1	92.7 µM
COC[C@](CO)(OC[C@H]1O[C@@H](n2ncc3c(NC4CCCC4)nc(Cl)nc32)[C@H](O)[C@@H]1O)P(=O)(O)O	2400 µM
O=C(O)c1nn(Cc2ccc(Cl)cc2Cl)c2ccccc12	3030 µM
CCC(C)N1c2ccccc2C(=O)N(C)c2cnc(Nc3ccc(C(=O)N4CCC(N5CCN(C)CC5)CC4)cc3OC)nc21 (centres undefined)	1600 µM

SMILES	apparent dissociation constant Kd
CCn1c(=O)c(-c2ccc(Cl)cc2Cl)cc2cnc(Nc3ccc(N4CCNCC4)c(F)c3)nc21	159 µM
COc1nccc(-c2c(-c3ccc(F)cc3)ncn2C2CCNCC2)n1	30 µM
C=CC(=O)Nc1cc2c(Nc3ccc(F)c(Cl)c3)ncnc2cc1C#CC(C)(C)N1CCN(C)CC1	63.7 µM
NC(=O)c1cnc(N[C@@H]2CCCC[C@@H]2N)nc1Nc1cccc(-n2nccn2)c1	1300 µM
Oc1cc2c(cc1O)C(Cc1cccc3ccccc13)NCC2 (centres undefined)	95.8 µM
Nc1ncn([C@@H]2O[C@H](CO)[C@@H](O)[C@H]2O)c(=O)n1	7530 µM
COc1cc(OC)c(CCC(=O)c2ccc(O)cc2)c(OC)c1	7470 µM
Cc1ccc(Oc2ccnc3cc(-c4cnn(C5CCNCC5)c4)ccc23)cc1	9260 µM
COc1c(Nc2ncc(Cl)c(N[C@H]3[C@@H](C(N)=O)[C@@H]4C=C[C@H]3C4)n2)ccc2c1CC[C@@H](N1CCOCC1)CC2	125 µM
O=C(NCCCNC(=O)Nc1cccc(C2=NCCN2)c1)Nc1cccc(C2=NCCN2)c1	1450 µM
CCN1CCN(Cc2ccc(NC(=O)c3ccc(C)c(NC(=O)c4cncc(-c5cccs5)c4)c3)cc2C(F)(F)F)CC1	92.2 µM
CN1CCN(c2ccc(C(=O)Nc3n[nH]c4ccc(Cc5cc(F)cc(F)c5)cc34)c(NC3CCOCC3)c2)CC1	1740 µM
Nc1ncnc2c1c(-c1cccc(OCc3ccccc3)c1)cn2C1CC(CN2CCCC2)C1 (centres undefined)	3340 µM
C[C@H]1CC[C@]2(NC1)O[C@H]1C[C@H]3[C@@H]4CC[C@H]5C[C@@H](O)CC[C@]5(C)[C@H]4CC[C@]3(C)[C@H]1[C@@H]2C	470 µM
CCN(CC)CCC(=O)N1N=C(c2c(-c3ccccc3)c3cc(Br)ccc3[nH]c2=O)CC1c1ccc(Br)cc1 (centres undefined)	8190 µM
CN1CCN(Cc2ccc(NC(=O)Nc3ccc(Oc4ccnc(N)n4)cc3)cc2C(F)(F)F)CC1	2260 µM
COCCNCCc1cccc(Nc2ncc3c(n2)-c2ccccc2[C@H](c2ccccc2F)C3)c1	83.8 µM
COc1cc2nc(C)nc(N[C@H](C)c3cc(N)cc(C(F)(F)F)c3)c2cc1O[C@H]1CCOC1	2100 µM
O=c1ccn([C@H]2C[C@H](O)[C@@H](COP(=O)(O)OP(=O)(O)OP(=O)(O)O)O2)c(=O)[nH]1	37.5 µM
